Experimental findings from the supplement of paper PMC11417369 are described below.

The other results are listed elsewhere or left out.

The subject of the experiment is PF3D7_0420300 AP2 domain 1 (GST-tagged). The experiment in a line: gcPBM binding intensity (ln(normalized median fluorescence intensity)); higher = stronger DNA binding. In a few lines:
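GST-fused DNA-binding domains of P. falciparum, expressed in E. coli, were applied at about 25 μg on average for 1 h to an Agilent 4 × 180k array of primer-extended double-stranded 36-bp intergenic genomic probes and negative controls. Binding intensity is the highest Masliner-normalised natural-log median intensity across replicate spots of either probe orientation, measured with Alexa488 anti-GST antibody and a 488 nm scan.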
“ATAATATATATATATGCATGTACATATTTATCTTTA [TGCATGCA_site32]”: the “gcPBM binding intensity (ln)” value turned out to be 9.26.
Regarding “AAAAAAAAAAAAAACATACACACAAATATATACATA [CACACA_site4010]”, the “gcPBM binding intensity (ln)” value amounted to 9.67.
Turning to “ATATATATATATATATGTACATATATATATGTATAT [XGTACX_site3959]”, the “gcPBM binding intensity (ln)” value was 9.17.
As to “ATATTATTTTAAAGTACACACATATATTAATATATA [CACACA_site2315]”, the “gcPBM binding intensity (ln)” value was found to be 9.39.
Turning to “TATACATACAGACCCACACACAAAAAAAAAAAAAAA [CACACA_site6536]”, the “gcPBM binding intensity (ln)” value amounted to 9.38.
Consider “ATATCTTATGTTATCACACACACACGCACAAAACAG [CACACA_site6800]”, for which the “gcPBM binding intensity (ln)” value turned out to be 10.2.
Under “TGTATTTATAAACATGCACACGTGGTTGTATTTATA [CACACA_site5762]” stands 9.45.
On to “ATTTTTTTTATTTTTTATATAATTTTTTTATATTAT [CACACA_negctrl_site1521]”, for which the “gcPBM binding intensity (ln)” value came to 9.38.
Under “ATTTGTTTACCTAAAAGTACAAATTTTTTATGTATA [XGTACX_site7689]” stands 9.11.
To “TGTTTTGTTTTTTGGGGTACATGTTTTGTATTATAT [XGTACX_site7997]” belongs 9.89; to “TATCCCTTAGAATACACACCCATATGAGTGTGAACT [CACACA_site7398]”, 9.3; to “AAATGAAAGAATTAAAGTACATTTATATAATTTTAA [XGTACX_site3540]”, 9.1.
To “AAGAGAAAAACATACACACACAACAAAATATGTATA [CACACA_site2719]” belongs 10; to “TAATAATAATTATATACACACATGTATATTATATTT [CACACA_site1501]”, 9.38; to “ATTTAAATATATTATTGTACATATACCTAATAAGAA [XGTACX_site6655]”, 9.19.
Take “ACTCCTATATAAATGAACCATATTCATAATATATAT [CACACA_negctrl_site1636]”: the “gcPBM binding intensity (ln)” value turned out to be 9.25.
Under “AATAATACAAAAGTTCAACAAAAAAAAAAAAAAAAT [CACACA_negctrl_site952]” stands 9.51; under “CTTTATAATATTTGTTGTACACAAATATAACATATT [XGTACX_site709]”, 9.31; under “AATATATTTATAAGCACACACTAATAAACACAGACA [CACACA_site4377]”, 9.87.
Under “AAATATATATATATATATATATATGTGTGTGTATAT [GTGCAC_negctrl_site1]” stands 9.54; under “GTACATAATTATTATGCACACATATTTTTATGTATT [CACACA_site8132]”, 9.49.
To “TGTATAATATATATATGTACTTATGTATAATATTAT [XGTACX_site4328]” belongs 9.26.
In the case of “AAGATATCTAAGGAAATTAAACTACCAAAATATATA [TGCATGCA_negctrl_site338]”, the “gcPBM binding intensity (ln)” value was 9.27.
To “TGCATAAAAGTAAAAACATGCATGCCGTGGTATCTT [TGCATGCA_site664]” belongs 9.22.
Under “TTTTTATGGATATTTATATTATATTATGATTAAAAA [TGCATGCA_negctrl_site204]” stands 8.85; under “GACATATAAATATACACACATACGTAAGTATATTAA [CACACA_site1790]”, 9.38; under ATTGAATATGGATATGTGCACATATGTATATAAGTA, 9.43.
Under “ATATATATACTGTGTACACACATATGTATTTATATA [CACACA_site4600]” stands 9.6; under “AAAACATTGTTGAACTGTTTTATTTATAAATATAAG [XGTACX_negctrl_site393]”, 8.92; under “TCGTGTTAAACTTTTACACACAAACTTGCAATAATT [CACACA_site7745]”, 9.59.
Take “TAATAACTACAAAAAAAAAAGAAAAATAGAAAAAGG [CACACA_negctrl_site1102]”: the “gcPBM binding intensity (ln)” value was determined as 9.55.
With “TTTGTTTAAATTAAATGTACATAAAGAATAATATAT [XGTACX_site5093]”, the “gcPBM binding intensity (ln)” value turned out to be 9.05.
To “TGCTTTATTATTTATTGTACATGTAAAATGAGAGAG [XGTACX_site2288]” belongs 8.99.
As to “AGAAGGTAAATAATTTACCCATATATATAAATATAT [GTGCAC_negctrl_site631]”, the “gcPBM binding intensity (ln)” value was determined as 9.09.
Under “AATTATATGAAATAAACACACATATGTAATATTACA [CACACA_site1928]” stands 9.45; under “TTATTATTTCTTAGTAGTACTATATAATTTTTTTTT [XGTACX_site1847]”, 9.26.
Under “ATAGTATCTGGTAGCTGTACGAGTCGTAGAGAGTAG [XGTACX_site2546]” stands 9.41.
To “ATATATCTGTATGGCACACACGGATAAATATATATA [CACACA_site4668]” belongs 9.52.
For the sequence “TGTATTTAGAAACATACACACATATTAAGTTTACAT [CACACA_site5689]”, the “gcPBM binding intensity (ln)” value was 9.49.
Under “GGAAAATTATCAATAGCATGCAAAATGTGAATATTA [TGCATGCA_site901]” stands 9.3.
As to “TTTCCTCATTTTATCATACACACTTATTTATATGTG [CACACA_site900]”, the “gcPBM binding intensity (ln)” value amounted to 9.49.
On to “GCCAAAATATAATTTACACACTTATTAAATAATTAT [CACACA_site236]”, for which the “gcPBM binding intensity (ln)” value was determined as 9.36.
Under “AGAATAATACAAAAATGTACATTAATAAAAAGATAG [XGTACX_site780]” stands 9.65; under “TAAATAATATCCCTTTGTACGTATTTTTTTTTATTA [XGTACX_site7303]”, 9.46; under “CGTTATATATGTATTACATGCAATATATGTACGTAA [TGCATGCA_site274]”, 9.16.
To “GAAATAAGTTAAAATAGTACGTAGTGTTCCTTAAGT [XGTACX_site6557]” belongs 9.38; to “TTAGGAAAACAAAAATGTACGCATATATATTATTGA [XGTACX_site8288]”, 9.27.
Regarding “TTAAAAATAATATATTGTACACATACTTATTTTAAT [XGTACX_site1348]”, the “gcPBM binding intensity (ln)” value amounted to 9.13.
To “TTTTTCTTTTGATGTTGTACATATATATCATATAAT [XGTACX_site1189]” belongs 9.22.
With “GTGCATATACAAATATGTACTTAAACGTTTTTTTTT [XGTACX_site7362]”, the “gcPBM binding intensity (ln)” value stood at 9.2.
For the sequence “AAGACTTCTCCATATACACACACCAACAAATATAAA [CACACA_site2779]”, the “gcPBM binding intensity (ln)” value was determined as 9.57.
To “GTTTATTCATCATACGGTACACATAAATAATATATA [XGTACX_site6931]” belongs 9.37; to “GATGAATAAATCAAAGCACACATACACCCACATATA [CACACA_site7986]”, 9.89; to “ATTTTTTTTTTTTTTTTTTGGTTTTCTTTAGGAGTT [CACACA_negctrl_site1258]”, 9.3.
Consider “TTCGTTTAAATCAAGTGTACATATTATATATAATAT [XGTACX_site7599]”, for which the “gcPBM binding intensity (ln)” value amounted to 9.17.
Under “TTTCTTAAAATGTTATGTACATATTTCGTTTCAAAG [XGTACX_site6102]” stands 9.01.
